# Experimental data taken from publication PMC4336329 (PLoS ONE, 2015).
# About 2,200 (0.71%) of roughly 310,000 compounds showed an effect of 50% or more. The effect is printed as a negative number. The list shows a part of the results.
# Target: human ether-à-go-go-related gene (hERG) potassium channel (human, UniProt Q12809)
# Assay: primary screen, population patch clamp on CHO cells stably expressing hERG
# Chain of human ether-à-go-go-related gene (hERG) potassium channel (Q12809 whole entry, looked up): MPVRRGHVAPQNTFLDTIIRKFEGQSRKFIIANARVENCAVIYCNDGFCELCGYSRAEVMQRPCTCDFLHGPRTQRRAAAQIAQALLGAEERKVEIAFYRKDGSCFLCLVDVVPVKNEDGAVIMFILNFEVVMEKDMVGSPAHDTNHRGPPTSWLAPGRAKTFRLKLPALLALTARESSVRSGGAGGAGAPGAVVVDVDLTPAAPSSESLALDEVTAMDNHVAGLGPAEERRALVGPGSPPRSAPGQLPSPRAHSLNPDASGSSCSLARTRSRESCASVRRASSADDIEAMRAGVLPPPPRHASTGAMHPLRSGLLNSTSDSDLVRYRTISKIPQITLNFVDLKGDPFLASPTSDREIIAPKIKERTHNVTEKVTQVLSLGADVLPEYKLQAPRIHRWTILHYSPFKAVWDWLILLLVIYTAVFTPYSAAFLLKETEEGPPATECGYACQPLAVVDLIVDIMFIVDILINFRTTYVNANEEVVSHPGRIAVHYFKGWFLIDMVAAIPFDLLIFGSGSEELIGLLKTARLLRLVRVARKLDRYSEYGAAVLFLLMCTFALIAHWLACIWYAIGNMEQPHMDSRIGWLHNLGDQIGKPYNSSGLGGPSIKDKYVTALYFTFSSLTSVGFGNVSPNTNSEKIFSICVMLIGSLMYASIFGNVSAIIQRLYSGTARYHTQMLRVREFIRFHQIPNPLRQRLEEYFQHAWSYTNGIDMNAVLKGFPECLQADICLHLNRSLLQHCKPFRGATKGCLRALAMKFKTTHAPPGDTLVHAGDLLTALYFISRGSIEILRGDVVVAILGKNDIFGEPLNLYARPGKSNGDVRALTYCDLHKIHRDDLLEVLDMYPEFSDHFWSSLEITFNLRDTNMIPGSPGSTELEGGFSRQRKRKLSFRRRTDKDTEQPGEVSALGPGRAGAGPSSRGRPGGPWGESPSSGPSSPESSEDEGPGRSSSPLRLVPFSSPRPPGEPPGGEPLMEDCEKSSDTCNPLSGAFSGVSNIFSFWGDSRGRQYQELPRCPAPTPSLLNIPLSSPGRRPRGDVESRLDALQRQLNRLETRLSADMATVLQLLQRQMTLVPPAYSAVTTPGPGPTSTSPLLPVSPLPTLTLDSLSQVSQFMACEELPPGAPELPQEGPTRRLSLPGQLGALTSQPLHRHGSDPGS
row,SMILES,"hERG current change (%, negative = inhibition) at 1uM"
1,COc1ccc(-c2cc(=O)c3c(O)cc(O)cc3o2)cc1,12.6%
2,COc1ccc(-c2cc(C)no2)cc1S(=O)(=O)N1CCN(C(=O)c2ccco2)CC1,5.94%
3,Cc1ccc(NNC(=O)c2ccno2)cc1C,9.92%
4,NS(=O)(=O)c1ccc(N/N=C/c2ccc(C(=O)O)cc2)c([N+](=O)[O-])c1,3.6%
5,COc1ccc(N(CC(=O)NC(C)c2ccccc2)S(=O)(=O)c2c(C)noc2C)cc1 (stereo not shown),9.76%
6,O=C(Oc1ccc(Br)cc1)c1cccc(S(=O)(=O)N2CCOCC2)c1,-3.81%
7,O=c1cc(N2CCN(Cc3ccccc3)CC2)[nH]c(=O)n1-c1ccc(Br)cc1,1.5%
8,CC(C)(C)C(=O)NC1CCN(S(=O)(=O)c2ccc(C(F)(F)F)cc2)CC1,-11.7%
9,CC(=O)Oc1ccc(C23CC4CC(CC(C4)C2)C3)cc1C(=O)O,7.6%
10,CCCC(=O)Nc1ccc(Oc2ccc(NC(=O)CCC)cc2)cc1,-5.63%
11,Cc1ccc(-c2n[nH]c(=S)n2/N=C\c2ccco2)cc1,11.1%
12,CSc1nc(-c2ccccc2)nc(C(Cl)Cl)n1,9.44%
13,COc1cc([N+](=O)[O-])ccc1NC(=S)Nn1cnnc1,16%
14,COc1ccc(OC)c2[nH]c(=O)c(CCNS(=O)(=O)c3ccc(F)cc3)cc12,8.18%
15,CSC1=C(C#N)C(C)CC(=O)N1 (stereo not shown),-0.693%
16,CCOC(=O)C1=C(C)N(C)C(C)=C(C(=O)OCC)C1c1ccncc1,10.5%
17,CCN1CCN(c2cc(C)c3cc(NC(=O)c4cccs4)ccc3n2)CC1,4.54%
18,O=C(c1ccccc1Cl)N1CCN(c2ccccn2)CC1,9.94%
19,CCN(CC(=O)N1CCC(C(N)=O)CC1)S(=O)(=O)c1ccc(Cl)cc1,15.1%
20,COc1ccccc1N(CC(=O)NCC1CCCO1)C(=O)CNS(=O)(=O)c1ccc(C)cc1 (stereo not shown),11.8%
21,CC(C)C(C(=O)Nc1nccs1)N1C(=O)c2ccccc2C1=O (stereo not shown),20%
22,Cc1[nH]c(=O)c(C(=O)/C=C/c2ccccc2F)c2c1CCCC2,3.24%

row,SMILES,"hERG current change (%, negative = inhibition) at 1uM"
1,O=[N+]([O-])c1cc(C(F)(F)F)ccc1N1CCN(CCO)CC1,0.0037%
2,Cc1cc(C)nc(NC(=O)C2c3ccccc3Oc3ccccc32)n1,8.2%
3,CCOC(=O)C1CCN(S(=O)(=O)c2cc(C(=O)OC)n(C)c2)CC1,6.73%
4,COc1cccc(OC)c1C(=O)NN1CCCCC1,2.06%
5,COC(=O)c1ccc(C2C(C(=O)c3ccco3)=C(O)C(=O)N2c2cc(C)on2)cc1 (stereo not shown),9.37%
6,COC(=O)C1=C(CCc2ccccc2)NC(=O)NC1c1ccc([N+](=O)[O-])cc1 (stereo not shown),0.491%
7,COCCNC(=O)CN(Cc1ccc2c(c1)OCO2)C(=O)CCC(=O)Nc1nccs1,8.29%
8,O=C(C1CC1)N(CCN(C(=O)C1CC1)c1ccccc1)c1ccccc1,9.4%
9,O=C(O)c1cc(N/N=C/c2ccc(OCc3ccccc3)cc2)ccc1Cl,-1.85%
10,O=C(CNC(=O)c1ccc(Cl)cc1Cl)OCCOc1ccccc1,9.55%
11,CCOc1ccc(NC(=O)CSc2nnc(-c3ccccc3)n2N)cc1,9.21%
12,CCCCC1CCC(C(=O)Nc2ccc(S(=O)(=O)Nc3nccs3)cc2)CC1 (stereo not shown),6.63%
13,CCOc1ccc(C(=O)NCCC(=O)N2CCC3(CC2)NCCc2[nH]cnc23)cc1,3.2%
14,COC(=O)c1ccc(CSc2nc3c(cnn3-c3ccc(F)cc3)c(=O)[nH]2)o1,15.6%
15,COc1cc(/C=C2\SC(=O)NC2=O)ccc1Oc1ccc([N+](=O)[O-])cc1[N+](=O)[O-],11.5%
16,COc1cccc(/C=C/C(=O)Nc2ccccc2N2CCOCC2)c1,-4.56%
17,Cc1cccc(C(=O)NCCNc2nc3cc(C)c(C)cc3cc2C)c1,8.3%
18,COc1ccc(-c2cc(C(F)(F)F)n3ncc(C(=O)Nc4c(C)n(C)n(-c5ccccc5)c4=O)c3n2)cc1,9.28%
19,O=C(Nc1ccc(Nc2ccccc2)cc1)c1c(F)c(F)c(F)c(F)c1F,10.8%
20,CCCCSc1nnc(CSc2nc3nc(C)cc(C)n3n2)o1,-3.1%
21,CCOc1cc(CN2CCc3c([nH]c4ccccc34)C2)ccc1OC,5.97%
22,CCN(CC)c1ccc(/C=C(\C#N)C(N)=S)cc1,7.02%

row,SMILES,"hERG current change (%, negative = inhibition) at 1uM"
1,Cc1cc(C)cc(NS(=O)(=O)c2c(C(=O)N3CCOCC3)c(C)n(C)c2C)c1,16.3%
2,Cn1/c(=N/N=C/c2ccc(Cl)c([N+](=O)[O-])c2)sc2ccccc21,7.16%
3,Cc1cc(C2=CC(C)(c3cc(C)oc3C)Nc3nc(C(F)(F)F)nn32)c(C)o1 (stereo not shown),15.3%
4,O=C(N/N=C/C1CCCCC1)c1ccccc1-n1cccc1,13.4%
5,CCN(CC)S(=O)(=O)c1cccc(-c2nnc(SCC(=O)NC3CCCCCCC3)n2N)c1,0.48%
6,COc1cc(C(=O)Nc2sc(C(=O)N3CCOCC3)c(C)c2C#N)cc(OC)c1OC,11.3%
7,CCNC(=S)Nc1cc(OCC)c(N2CCOCC2)cc1OCC,10%
8,O=C(/C=C/c1cccs1)Nc1cccc(NC(=O)/C=C/c2cccs2)n1,11.3%
9,CCc1cccc(NC(=O)c2cc(S(=O)(=O)N(C)C)ccc2N2CCCC2)c1,-9.27%
10,FC(F)(F)c1ccc(NCc2ccccn2)nc1,9.79%
11,O=C(COC(=O)c1cc(-c2ccc(F)cc2)nc2ccccc12)NCC1CCCO1 (stereo not shown),0.317%
12,O=C(NC1CCCC1)C1CCCN1C(=O)Nc1ccc(Cl)cc1 (stereo not shown),1.63%
13,O=c1[nH]c(NCCO)nnc1Cc1ccccc1,10.5%
14,COc1cccc(-c2nc(CS(=O)(=O)CC(=O)N3CCN(C4CCCCC4)CC3)c(C)o2)c1,-6.54%
15,O=C(COC(=O)C1=COCCO1)Nc1c(F)cccc1F,19%
16,O=C(C[n+]1cc(-c2ccccc2)n2c1CCC2)Nc1nc(-c2ccccc2)cs1.[Cl-],-8.5%
17,c1ccc(N2CCOCCOCCOCCOCC2)cc1,6.91%
18,O=C(CC1SCCNC1=O)Nc1ccc(F)c(Cl)c1 (stereo not shown),16.9%
19,COc1ccc(C(Cl)=C(c2ccc(OC)cc2)c2ccc(OC)cc2)cc1,22%
20,CN1C(=O)N(CC(=O)Nc2nccs2)C(=O)C12CCCCC2,10.5%
21,COCCNC(=O)CCCn1c(=O)c2cc(OC)c(OC)cc2n(CC(=O)NCCC2=CCCCC2)c1=O,6.1%
22,NC(=O)c1ccccc1NC(=O)/C=C/c1c(Cl)cccc1Cl,3.55%

row,SMILES,"hERG current change (%, negative = inhibition) at 1uM"
1,Cc1c(/C=C/C(=O)c2ccc(Cl)s2)cnn1C,4.64%
2,CC(NC(=O)C1c2ccccc2Oc2ccccc21)C1CCCO1 (stereo not shown),14.3%
3,CCc1ccc(-n2c(=O)c3ccc(C(=O)NCCc4ccccc4)cc3n(CC(N)=O)c2=O)cc1,9.52%
4,CCCc1c2c(cc3c(=O)cc(C(=O)OCC)oc13)CCCC2,11.8%
5,O=C(COc1ccc(Br)cc1)NC(=S)Nc1ccccc1N1CCOCC1,18.5%
6,COc1ccc(C(CNC(=O)c2ccc(Cl)s2)N2CCOCC2)cc1 (stereo not shown),0.315%
7,O=C(Nc1cccc2c1N(C(=O)c1ccco1)CCC2)c1ccco1,5.89%
8,COc1ccc(/C=N/NC(=O)C(=O)NCc2cccnc2)cc1,12.5%
9,COc1cccc(NC(=O)c2cccc(S(=O)(=O)N3CCN(Cc4ccccc4)CC3)c2)c1,12.7%
10,Cc1ccnc(NS(=O)(=O)c2ccc(NS(=O)(=O)c3ccccc3)cc2)n1,-0.544%
11,Cc1ccc2c(CC(=O)NNC(=O)c3ccccc3O)coc2c1,9.45%
12,O=C(CNC(=O)c1ccco1)NCC(=O)OCc1ccc(Cl)cc1Cl,-23.7%
13,CCOc1cccc(/C(O)=C2/C(=O)C(=O)N(CCN3CCOCC3)C2c2ccncc2)c1 (stereo not shown),-1.9%
14,Cc1cc(Br)c(NC(=O)COn2nnc3ccc(S(C)(=O)=O)cc32)c(Br)c1,2.99%
15,CC(=O)Nc1sc(N/N=C\c2ccccc2)nc1-c1cccs1,13.4%
16,Cc1oc2ccc(OCC(N)=O)cc2c1C(=O)OC(C)C,-0.677%
17,Cc1nn(C)c(C(=O)Nc2ccc3c(c2)OCO3)c1[N+](=O)[O-],17%
18,CS(=O)c1ccccc1COC(=O)Nc1ccccc1 (stereo not shown),9.6%
19,COC(=O)C(N)CCCCN.Cl (stereo not shown),14.2%
20,C=CCn1c(O)c(C(C)=NCCN2CCOCC2)c(=O)[nH]c1=O,-4.63%
21,COc1cc(/C=C/C(=O)Nc2ccc(C(C)=O)cc2)cc(OC)c1OC,10.2%
22,COC(=O)C1CCN(C(=O)COC(=O)COc2ccc(C#N)cc2)CC1,9.61%
